Test results taken from PubChem BioAssay AID1508624 (National Center for Advancing Translational Sciences (NCATS), 2021).
Hit rate of the full screen: of about 48,000 compounds, about 120 (0.25%) were called active. Roughly 4% stayed inconclusive and do not appear here. The call rests on the fitted dose curve; in most records, active means well fitted activation curve with a large enough effect; inconclusive means small, poorly fitted or top-dose-only effect, or another doubt; inactive means no such curve, though single readings can be large or run the other way. Some of the results follow.

Assay: Primary qHTS for Identification of Small Molecule Activators of Huntingtin-Antisense Promoter Activity; further: nearly all actives have a fitted effect of over 55% in size
Details: HEK293 HTT-AS promoter firefly luciferase reporter, 24 h; series mostly up to 57.5 µM; activity change, positive = activation: at the top concentration
Method in brief: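 Firefly luciferase readout (Dual-Glo, 10 min RT) after 24 h, 37 °C compound exposure (final up to 57.5 uM) of HEK293 reporter cells cultured 24 h beforehand; PTC124 at 50 uM final as control inhibitor; activity scaled vehicle 0%, zero RLU -100%.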

Activity change, positive = activation, inactive:
Cc1ccc(CNC(=O)Cn2nc(N3CCN(c4ccccc4)CC3)ccc2=O)cc1 -21%
Cc1cccc(N2CCN(C(=O)c3cnn(-c4ccc(F)cc4F)c3C3CCN(C(=O)OC(C)(C)C)CC3)CC2)c1C -34%
COc1ccc(-n2c(SCC(=O)NCc3ccco3)nc3c([nH]c4ccccc43)c2=O)cc1 -25.3%
CCOc1ccccc1NC(=O)c1cc2cc3cc(C)ccc3nc2s1 16.2%
CCCn1c2ccccc2c2cnn(CC(=O)N(CC)c3cc(C)ccc3C)c(=O)c21 -33.8%
CCCNC(=O)CSc1c2c(nc3ccc(Cl)cc13)CCCC2 -4.25%
CCOC(=O)c1cc2c(=O)n3ccccc3nc2n(Cc2ccco2)c1=NC(=O)c1cccc(C)c1 -3.73%
Cc1ccc(NC(=O)CSc2nc3ccccc3c(=O)n2CCC(=O)NC2CCCCC2)cc1C -1.7%
Cc1cccc(N2CCN(C(=O)C3CCN(S(=O)(=O)c4c(C)noc4/C=C/c4ccccc4F)CC3)CC2C)c1 (configuration not stated) 13.7%
Cc1ccc(NC(=O)Nc2cn(C)c(=O)c3ccccc23)c(Cl)c1 -32.1%
Cc1ccc2oc(=O)c3cnn(CC(=O)N4CCN(c5ccccc5F)CC4)c3c2c1 -4.75%
Cc1ccc(C2C=C(c3ccccc3)Nc3nc(NS(=O)(=O)c4ccc(C)cc4)nn32)cc1 (configuration not stated) -11.3%
Cc1cc(=O)n(Cc2ccccc2)c2c1c(C)nn2-c1ccccc1 -4.77%
CCc1ccccc1NC(=O)c1ccc(Cn2nc(N3CCN(c4ccccc4)CC3)ccc2=O)o1 -42.4%
Cc1nc2c3ccccc3nc(NNC(=O)CCC(=O)N3CCN(c4cc(Cl)ccc4C)CC3)n2n1 -16.8%
CCc1cccc(NC(=O)CSc2nc3ccccc3nc2N2CCCCC2)c1 -31%
COc1cccc(NC(=O)c2sc3nc(C)c(C(=O)Nc4ccc(C)cc4C)c(-c4ccco4)c3c2N)c1 0%
COc1ccc(OCC(=O)Nc2cccc(C(=O)OCc3cc(=O)n4nc(C)sc4n3)c2)cc1 -9.8%
CNC(=O)CCCN1C(=O)CCn2nc(-c3cn(C)c4ccccc34)cc21 -15.6%
CCC1CN(C(=O)NCc2ccc(F)cc2)c2cc(Cl)ccc2O1 (configuration not stated) -26.4%
COc1ccc(C2CC(=O)c3cc(-c4nc(-c5ccc(C)cc5)cs4)c(=O)[nH]c3C2)cc1 (configuration not stated) -5.68%
CC(C)c1ccc(NC(=O)Cc2ccc(NC(=O)N3CCCCc4ccccc43)cc2)cc1 -15.8%
CCOC(=O)c1c(C)[nH]c(C)c1S(=O)(=O)N(C)CC(=O)NCc1ccc(C)cc1 -8.72%
CCOc1cccc(CNC(=O)c2ccc(N3CCCC3)c(NC(=O)Nc3ccccc3CC)c2)c1 -24.9%
COc1ccc(NC(=O)C2CCCN(S(=O)(=O)c3c(C)[nH]c(=O)[nH]c3=O)C2)cc1 (configuration not stated) -0.681%
CCCCOc1ccc(CNC(=O)CN2C(=O)CCn3nc(-c4cn(C)c5ccccc45)cc32)cc1 -32.9%
COc1cc(OC)c(NC(=O)CC(C)S(=O)(=O)c2ccc3c(c2)NC(=O)CO3)cc1Cl (configuration not stated) -10.5%
COc1ccc(S(=O)(=O)NCCc2csc(-c3cccc(F)c3)n2)cc1OC -23.8%
CCn1cc(S(=O)(=O)c2ccc(OC)cc2)c(=O)c2cc(F)c(N3CCCCCC3)cc21 -12.1%
COc1ccc(-c2nn(-c3ccc(C)c(Cl)c3)c3c2cnc2cc(OC)c(OC)cc23)cc1 0.618%
Nc1nc(Nc2cccc(Cl)c2)sc1C(=O)c1ccc(F)cc1 -13.8%
CCOc1ccc(/C=C/C(=O)Nc2sc3c(c2C(=O)OC)CCCC3)cc1 4.1%
O=C(CSc1ncc2c(n1)-c1cc(Cl)ccc1N(Cc1ccccc1)S2(=O)=O)NCCc1ccccc1 -10.4%
COc1ccc(NC(=O)c2cccn2-c2nnc(N3CCCCC3)s2)c(OC)c1 8.66%
CCOC(=O)COc1cc(C)c(Cl)cc1C(=O)c1ccn2nc(-c3ccc(OC)cc3)cc2n1 -5.34%
CN(CCCN1c2ccccc2CCc2ccccc21)CC(=O)c1ccc(Cl)cc1 2.58%
CCc1nn(CC(=O)NCCc2ccc(OC)c(OC)c2)c(=O)c2cc3occc3n12 -13.5%
CCOC(=O)c1ccc(NC(=O)CSc2nc(-c3ccc(F)cc3)cc(C(F)(F)F)c2C#N)cc1 -4.26%
COc1ccccc1NC(=O)c1ccc(-c2nc(COc3ccc(C)cc3)c(C)o2)cc1 -23.1%
Cc1ccc(NC(=O)Nc2c(C)n(C)n(-c3ccccc3)c2=O)c(Cl)c1 -5.73%
CCOc1ccc(NC(=O)C2=C(C)C(=O)OC23CCC(C)CC3)cc1 (configuration not stated) -25.6%
CC(C)CCNC(=O)c1cc(-c2ccc(Br)s2)nc2ccccc12 -1.35%
COc1ccc(-c2cc(C)no2)cc1S(=O)(=O)N1CCCC(C)C1 (configuration not stated) -22.8%
Cc1cccc(NC(=O)c2ccc3[nH]c(C)cc(=O)c3c2)c1 10.1%
Cn1c(=O)[nH]c(=O)c2c1nc(CN1CCN(c3ccccc3)CC1)n2Cc1c(F)cccc1Cl -18.3%
CCC(=O)N1CCc2cc(S(=O)(=O)NC(Cc3ccccc3)C(=O)NCc3ccccc3OC)ccc21 (configuration not stated) -2.1%
CC(C)(C)c1ccc(C(=O)Nc2ccc(NC(=O)c3ccc(Cl)c(Cl)c3)cc2)cc1 -7.88%
COc1cccc(NC(=O)Nc2ccc3snnc3c2)c1 2.41%
CCC(Oc1ccccc1)C(=O)Nc1cc(-c2ccccc2F)nn1-c1ccccc1 (configuration not stated) -16.7%
CCN1CCN(c2nc3c(S(=O)(=O)c4ccc(C)cc4)nnn3c3ccsc23)CC1 -17.9%
CCN(CC)S(=O)(=O)c1ccc2c(c1)N(CC(=O)NCCc1ccccc1)C(=O)CO2 -10.9%
COc1cc(NC(=O)C(CC(C)C)N2Cc3ccccc3C2=O)cc(OC)c1 (configuration not stated) -9.95%
CCOc1ccc(NC(=O)CSc2nc3ccsc3c(=O)n2CC)cc1 -29.4%
CCN(CC)C(=O)c1ccc2c(c1)N(Cc1ccccc1F)C(=O)c1ccccc1S2=O (configuration not stated) -18.1%
Cc1ccc(NC(=O)Cn2c(=O)nc(-c3ccccc3)c3ccccc32)cc1 -5.47%
CCCCNC(=O)CCn1nc(-c2ccc(Cl)cc2)c2ccccc2c1=O 11.6% [at 11.5 µM, percent change from vehicle, -100% = no light]
CCCCOc1ccc(CNC(=O)c2cnc3sc(N4CCCCCC4)nn3c2=O)cc1 -3.21%
Cc1c(C(=O)NCc2cccc(F)c2)oc2c1-c1[nH]ncc1CC2 -12.6%
Cc1cccc(C(=O)n2nc(-c3cccnc3)nc2NCc2ccc(F)cc2)c1 -1.35%
CC(=O)OCCN1C(=O)c2c(C)nc3ccc(S(=O)(=O)N4CCOCC4)cc3c2C1=O -7.49%
Cc1ccc(Nc2nc3ccccc3nc2-n2nc(C)cc2C)c(Cl)c1 -9.17%
CCc1cccc(N2C(=O)CS(=O)(=O)C23C(=O)N(Cc2ccccc2)c2ccc(C)cc23)c1 (configuration not stated) -22.6%
CSc1ccc(CNC(=O)c2sc3ncnc(N(C)C4CCCCC4)c3c2C)cc1 -23.2%
Cc1cccc(C(=O)N2c3ncnn3C3(CCCCC3)[C@@H]3CCCC[C@@H]32)c1 -31.8%
Cc1cccc(Nc2cc(C)nc(-n3nc(C)cc3C)n2)c1 -21.1%
CCOc1ccc(CN2C(=O)C(=O)c3cccc(C)c32)cc1OC -24.4%
Cc1c(C(=O)Nc2ccc(F)cc2)oc2ccc(S(=O)(=O)N3CCCCCC3)cc12 -29%
CCOC(=O)c1cccc(NS(=O)(=O)c2ccc(-c3coc(C)n3)cc2)c1 -12.4%
Cc1cc(C)c(NC(=O)C2CCN(C(=O)N3CCOc4ccccc43)CC2)c(C)c1 -24.2%
COc1ccc(-c2cc(C(F)(F)F)n3ncc(-c4ccccc4)c3n2)cc1 -11.4%
COC(=O)c1ccc2c(=O)n(CCc3ccc(S(N)(=O)=O)cc3)c(SCC(=O)C(C)(C)C)nc2c1 -1.34%
COc1ccccc1CNc1nc2ccccc2c2nc(-c3cccc(C)c3)nn12 23.8%
Cc1cccc(CCNC(=O)c2cc3c(=O)[nH]c4ccc(C)cc4c3s2)c1 -22.8%
CCn1cc(C(=O)NCCN(CC(C)C)CC(C)C)c(=O)c2cc(S(=O)(=O)N(C)C3CCCCC3)ccc21 -1.95%
COc1cc([N+](=O)[O-])ccc1NC(=O)N1CCC2(CC1)Nc1ccccc1-n1cccc12 -14.5%
COc1ccc2cc3cc(C(=O)N4CCN(c5cccc(C(F)(F)F)c5)CC4)sc3nc2c1 -14.8%
COc1ccc(-c2nc3sc(CCNC(=O)C(=O)Nc4cc(F)ccc4F)c(C)n3n2)cc1 3.06%
CCOCCCn1c(SCC(=O)NCc2ccccc2)nc2c(sc3ccccc32)c1=O -2.09%
COc1ccc(NC(=O)c2nnn(CC(=O)Nc3cccc(C)c3C)c2N)c(OC)c1 -20.9%
CCCCOc1ccccc1Cn1c(=O)sc2ccccc21 -10.4%
Cc1cccc(NC(=O)CN(C)S(=O)(=O)c2ccc3c(c2)CCC(=O)N3)c1C -9.46%
CCOc1ccc(C(=O)Nc2cccc(NC(=O)c3ccc(Cl)cc3Cl)c2)cc1 -1.37%
O=C1NCC2(CCN(CCc3ccccc3)CC2)O1 -5.11%
Nc1nc(NCCNc2ncc(-n3ccnc3)c(-c3ccc(Cl)cc3Cl)n2)ccc1[N+](=O)[O-] -29%
Cn1c(SCC(=O)Nc2nc3ccccc3s2)ncc(C(=O)Nc2ccc(Cl)cc2)c1=O 13.8%
CCOCCCNC(=O)c1cn(CC(C)C)c(=O)c2c1c1ccccc1n2C -4.69%
COc1cccc(NC(=O)Cn2nnc(C(=O)NCc3ccc4c(c3)OCO4)c2N)c1 -1.25%
CSc1ncc(Cl)c(C(=O)N(C)c2ccccc2)n1 -22.9%
CCN1CCN(c2ncc3c(n2)CCN(Cc2cccc(F)c2F)C3)CC1 -9.34%
COC(=O)c1ccccc1NC(=O)c1nn(C)c2c1COc1ccccc1-2 -4.74%
CN(C)c1cc(NC(=O)CNC(C)(C)C)c(O)c2c1C[C@@H]1C[C@H]3[C@H](N(C)C)C(=O)C(C(N)=O)=C(O)[C@@]3(O)C(=O)C1=C2O -11.2%
Cc1cc(C)c(NC(=O)CSc2nc(=O)n(Cc3cccnc3)c3c2CCC3)c(C)c1 -18.7%
